Source: patent US20130089513A1 (MEDEXGEN, published 2013)
Values belong to the binder of their own block, whether it stands above or below them.

Tests used:
[1] = molecular target: T1, TPO receptor-Fc fusion protein (human, UniProt P40238 26-491); assay: ELISA on coated TPO receptor-Fc, detection with biotinylated anti-human TPO antibody and streptavidin-HRP
T1 construct: extracellular domain; C-terminal region of the receptor's extracellular domain fused to the N-terminal region of human IgG1 Fc; purified on Protein A from CHO supernatant; also called TPO receptor-Ig fusion protein; not shown: Fc domain of human IgG1
T1 sequence (looked up): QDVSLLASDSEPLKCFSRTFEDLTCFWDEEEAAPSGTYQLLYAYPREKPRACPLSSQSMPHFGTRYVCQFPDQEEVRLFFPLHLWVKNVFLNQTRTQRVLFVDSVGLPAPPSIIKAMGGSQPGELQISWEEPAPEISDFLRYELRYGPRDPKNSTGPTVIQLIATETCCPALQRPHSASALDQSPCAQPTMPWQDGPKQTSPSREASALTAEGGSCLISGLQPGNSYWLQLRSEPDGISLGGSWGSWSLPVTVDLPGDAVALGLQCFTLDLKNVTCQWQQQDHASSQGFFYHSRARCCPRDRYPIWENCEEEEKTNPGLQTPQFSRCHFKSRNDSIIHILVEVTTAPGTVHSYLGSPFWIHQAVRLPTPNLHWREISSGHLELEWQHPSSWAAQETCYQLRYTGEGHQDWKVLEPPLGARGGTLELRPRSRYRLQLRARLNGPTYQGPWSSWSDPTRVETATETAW

[2] = molecular target: T2, c-Mpl (TPO receptor) expressed on TF-1/c-Mpl cells (human, UniProt P40238 26-635); assay: cell-based or functional assay
T2 sequence (looked up): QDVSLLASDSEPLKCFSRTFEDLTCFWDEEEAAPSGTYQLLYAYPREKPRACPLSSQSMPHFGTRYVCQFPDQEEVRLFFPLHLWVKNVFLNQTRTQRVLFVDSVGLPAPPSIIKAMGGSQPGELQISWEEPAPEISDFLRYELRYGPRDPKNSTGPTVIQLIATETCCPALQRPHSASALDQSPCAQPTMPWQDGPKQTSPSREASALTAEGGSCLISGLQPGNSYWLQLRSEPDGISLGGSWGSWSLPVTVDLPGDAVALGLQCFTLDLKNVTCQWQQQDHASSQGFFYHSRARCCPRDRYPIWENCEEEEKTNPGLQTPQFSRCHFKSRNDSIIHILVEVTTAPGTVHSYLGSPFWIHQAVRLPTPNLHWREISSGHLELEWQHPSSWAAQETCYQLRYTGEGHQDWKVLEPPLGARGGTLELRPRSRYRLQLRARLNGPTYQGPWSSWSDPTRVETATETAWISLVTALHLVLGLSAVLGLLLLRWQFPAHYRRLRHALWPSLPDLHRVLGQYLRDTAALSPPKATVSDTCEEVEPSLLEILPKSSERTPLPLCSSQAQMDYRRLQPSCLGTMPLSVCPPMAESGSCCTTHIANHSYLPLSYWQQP

[3] = molecular target: T1, TPO receptor-Fc fusion protein; assay: SPR, BIAcore 3000, TPO receptor-Fc captured by anti-human IgG
[4] = molecular target: T1, TPO receptor-Fc fusion protein; assay: SPR, BIAcore 3000, CM5 chip, TPO receptor-Fc captured by anti-human IgG

EC50 (read off the curve) [1]: ~40 ng/mL
The maximum activity comparison(%) (TF-1/c-Mpl cell proliferation, MTS) [2]: 107%
B1: TPO-[F46V] (ligand)
chain: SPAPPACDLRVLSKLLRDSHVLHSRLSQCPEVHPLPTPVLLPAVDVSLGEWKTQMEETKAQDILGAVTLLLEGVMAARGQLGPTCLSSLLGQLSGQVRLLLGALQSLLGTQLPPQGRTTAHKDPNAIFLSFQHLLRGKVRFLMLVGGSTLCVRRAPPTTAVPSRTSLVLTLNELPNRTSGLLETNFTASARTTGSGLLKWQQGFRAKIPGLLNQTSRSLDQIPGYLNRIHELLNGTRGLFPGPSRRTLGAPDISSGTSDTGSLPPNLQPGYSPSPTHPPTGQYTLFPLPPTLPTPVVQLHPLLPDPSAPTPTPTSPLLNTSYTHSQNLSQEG
notes: TPO mutein expressed in CHO-K1 cells

EC50 (read off the curve) [1]: ~30 ng/mL
The maximum activity comparison(%) (TF-1/c-Mpl cell proliferation, MTS) [2]: 63%
B2: TPO-[F128V] (ligand)
chain: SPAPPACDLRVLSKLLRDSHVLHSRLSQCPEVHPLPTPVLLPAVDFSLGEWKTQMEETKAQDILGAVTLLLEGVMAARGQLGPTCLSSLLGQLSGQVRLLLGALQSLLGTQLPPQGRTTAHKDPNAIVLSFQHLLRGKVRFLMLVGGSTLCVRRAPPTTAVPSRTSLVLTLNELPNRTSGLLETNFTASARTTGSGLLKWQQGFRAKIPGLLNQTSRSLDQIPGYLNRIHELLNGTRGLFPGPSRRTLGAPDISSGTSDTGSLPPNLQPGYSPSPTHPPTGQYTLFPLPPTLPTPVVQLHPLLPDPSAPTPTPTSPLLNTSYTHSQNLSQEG
notes: as for B1

EC50 (read off the curve) [1]: ~80 ng/mL
Kd [3]: 3.98 nM
koff [3]: 0.0051 s⁻¹
kon [3]: 1.28e+06 M⁻¹ s⁻¹
The maximum activity comparison(%) (TF-1/c-Mpl cell proliferation, MTS) [2]: 146%
resonance unit (RU) [4]: 30 RU
B3: TPO-[F141V] (ligand)
chain: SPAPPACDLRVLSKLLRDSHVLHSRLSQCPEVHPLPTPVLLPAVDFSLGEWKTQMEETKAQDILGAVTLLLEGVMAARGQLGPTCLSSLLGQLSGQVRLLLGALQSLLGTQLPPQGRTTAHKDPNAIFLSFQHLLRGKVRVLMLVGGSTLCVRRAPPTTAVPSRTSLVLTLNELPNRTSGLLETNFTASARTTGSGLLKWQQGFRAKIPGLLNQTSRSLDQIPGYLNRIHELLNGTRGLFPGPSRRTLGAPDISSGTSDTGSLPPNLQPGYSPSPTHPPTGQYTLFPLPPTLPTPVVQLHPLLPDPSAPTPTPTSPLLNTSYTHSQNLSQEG
notes: as for B1

EC50 (read off the curve) [1]: ~60 ng/mL
The maximum activity comparison(%) (TF-1/c-Mpl cell proliferation, MTS) [2]: 119%
resonance unit (RU) [4]: 20 RU
B4: TPO-[F131V] (ligand)
chain: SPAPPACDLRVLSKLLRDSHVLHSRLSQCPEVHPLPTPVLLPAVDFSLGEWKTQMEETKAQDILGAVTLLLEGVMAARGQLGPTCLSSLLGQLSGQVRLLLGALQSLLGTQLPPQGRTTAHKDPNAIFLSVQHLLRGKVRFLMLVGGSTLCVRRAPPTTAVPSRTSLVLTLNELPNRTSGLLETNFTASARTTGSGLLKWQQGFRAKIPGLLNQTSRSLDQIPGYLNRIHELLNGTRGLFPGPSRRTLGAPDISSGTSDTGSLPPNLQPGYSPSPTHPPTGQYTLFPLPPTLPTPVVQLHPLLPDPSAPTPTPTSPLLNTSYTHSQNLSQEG
notes: as for B1
